In US9126931B2 (priority 2009, dated 2015) one finds IC50 data, which are given here for 31 molecules.

Usually IC50 stands for the concentration needed to halve the response being measured.

Counter-ions that a name gives are not always drawn.

The experiment relates to Human lymphoma cell line KARPAS-299. The experiment is described as follows: cells. The conditions noted are these: KARPAS-299, 96 h, read-out: Inhibitory activity on Karpas-299 cell growth IC50.
Consider `CC1(C)c2cc(OC[C@H](O)CO)ccc2C(=O)c2c1[nH]c1c(C(F)(F)F)c(C#N)ccc21` [Compound U8-5-2, 8-((R)-2,3-Dihydroxy-propoxy)-6,6-dimethyl-11-oxo-4-trifluoromethyl-6,11-dihydro-5H-benzo[b]carbazole-3-carbonitrile], for which the IC50 amounted to 357 nM.
In the case of `CN(C)CCCOc1cccc2c1C(C)(C)c1[nH]c3cc(C#N)ccc3c1C2=O` [Compound W4-4, 7-(3-Dimethylamino-propoxy)-6,6-dimethyl-11-oxo-6,11-dihydro-5H-benzo[b]carbazole-3-carbonitrile] it was 116 nM.
In the case of `CCc1cc2c(cc1NCCN1CCOCC1)C(C)(C)c1[nH]c3cc(C#N)ccc3c1C2=O` [PR9-20, 9-Ethyl-6,6-dimethyl-8-(2-morpholine-4-yl-ethylamino)-11-oxo-6,11-dihydro-5H-benzo[b]carbazole-3-carbonitrile] it was 18.8 nM; in that of `CC1(C)c2cc(OC[C@@H](O)[C@H](O)CO)ccc2C(=O)c2c1oc1cc(Oc3ncccn3)ccc21` [GT13-33, 6,6-Dimethyl-3-(pyrimidin-2-yloxy)-8-((2R,3R)-2,3,4-trihydroxy-butoxy)-6H-benzo[b]naphtho[2,3-d]furan-11-one], 10900 nM; in that of `CCN(CC)CCOc1ccc2c(c1)C1(CCNCC1)c1[nH]c3ccccc3c1C2=O` [Compound X5, 8-(2-Diethylaminoethoxy)-6,6-spiro-4-piperidine-8-hydroxy-5,6-dihydro-benzo[b]carbazol-11-one], 2880 nM.
Turning to `CC1(C)c2cc(N3CCC(C)(N4CCOCC4)CC3)ncc2C(=O)c2c1[nH]c1cc(C(N)=O)ccc21` [AZ7-6, 5,5-Dimethyl-3-(4-methyl-4-morpholine-4-yl-piperidine-1-yl)-11-oxo-6,11-dihydro-5H-pyrido[4,3-b]carbazole-8-carboxylic acid amide], the IC50 turned out to be 1130 nM.
Consider `CC1(C)c2cc(OC[C@H](O)CO)ccc2C(=O)c2c1[nH]c1cc(-c3cncs3)ccc21` [GT9-6, 8-((R)-2,3-Dihydroxy-propoxy)-6,6-dimethyl-3-thiazol-5-yl-5,6-dihydro-benzo[b]carbazol-11-one], for which the IC50 was 2660 nM.
For `CCc1cc2c(cc1N1CCC(C#N)(N3CCOCC3)CC1)C(C)(C)c1[nH]c3cc(C#N)ccc3c1C2=O` [PR11-21, 8-(4-Cyano-4-morpholine-4-yl-piperidine-1-yl)-9-ethyl-6,6-dimethyl-11-oxo-6,11-dihydro-5H-benzo[b]carbazole-3-carbonitrile], the IC50 was 64.4 nM.
Turning to `CC1(C)c2nc(OS(=O)(=O)C(F)(F)F)ccc2C(=O)c2c1[nH]c1cc(C#N)ccc21` [EZ9-1, Trifluoro-methanesulfonic acid 8-cyano-11,11-dimethyl-5-oxo-10,11-dihydro-5H-pyrido[2,3-b]carbazol-2-yl ester], the IC50 turned out to be 16600 nM.
In the case of `CC1(C)c2ccc(OCCCCCC(=O)O)cc2C(=O)c2c1[nH]c1cc(C#N)ccc21` [Compound J7-14, 6-(3-Cyano-6,6-dimethyl-11-oxo-6,11-dihydro-5H-benzo[b]carbazol-9-yloxy)-hexanoic acid], the IC50 was 557 nM.
Consider `COc1ccc(C(C)(C)C)cc1NC(=O)Oc1ccc2c3c(oc2c1)C(C)(C)c1cc(OC[C@H](O)CO)ccc1C3=O` [GT13-32, (5-tert-Butyl-2-methoxy-phenyl)-carbamic acid 8-((R)-2,3-dihydroxy-propoxy)-6,6-dimethyl-11-oxo-6,11-dihydro-benzo[b]naphtho[2,3-d]furan-3-yl ester], for which the IC50 came out at 2500 nM.
In the case of `CC1(C)c2cc(OCCN3CCNC(=O)C3)ccc2C(=O)c2c1[nH]c1cc(C#N)ccc21` [Compound A8-17, 6,6-Dimethyl-11-oxo-8-[2-(3-oxo-piperazin-1-yl)-ethoxy]-6,11-dihydro-5H-benzo[b]carbazole-3-carbonitrile] it was 127 nM; in that of `CC(C)N1CCC(Cc2ccc3c(c2)C(C)(C)c2[nH]c4cc(C#N)ccc4c2C3=O)CC1` [Compound B2-27, 8-(1-Isopropyl-piperidin-4-ylmethyl)-6,6-dimethyl-11-oxo-6,11-dihydro-5H-benzo[b]carbazole-3-carbonitrile], 13.8 nM; in that of `CCN(CC)CCOc1ccc2c(c1)C(C)(C)c1[nH]c3cc(N(C)C(=O)Nc4ccccc4)ccc3c1C2=O` [GT5-14, 1-[8-(2-Diethylamino-ethoxy)-6,6-dimethyl-11-oxo-6,11-dihydro-5H-benzo[b]carbazol-3-yl]-1 methyl-3-phenyl-urea], 3790 nM.
As for `CC1(C)c2cc(S(=O)(=O)CC(O)CO)ccc2C(=O)c2c1[nH]c1cc(C#N)ccc21` (stereo not shown) [Compound B3-12, 8-(2,3-Dihydroxy-propane-1-sulfonyl)-6,6-dimethyl-11-oxo-6,11-dihydro-5H-benzo[b]carbazole-3-carbonitrile], the figure is 1440 nM.
Turning to `COCCN1CCC(Oc2ccc3c(c2)C(C)(C)c2[nH]c4cc(C#N)ccc4c2C3=O)CC1` [Compound A9-5, 8-[1-(2-Methoxy-ethyl)-piperidin-4-yloxy]-6,6-dimethyl-11-oxo-6,11-dihydro-5H-benzo[b]carbazole-3-carbonitrile], the IC50 worked out at 52.3 nM.
Regarding `COc1ccc2c(c1)C(C)(C)c1[nH]c3c(Br)c(C#N)ccc3c1C2=O` [Compound U5, 4-Bromo-8-methoxy-6,6-dimethyl-11-oxo-6,11-dihydro-5H-benzo[b]carbazole-3-carbonitrile], the IC50 turned out to be 122 nM.
As for `CNS(=O)(=O)N1CCN(C(=O)COc2ccc3c(c2)C(C)(C)c2[nH]c4cc(Br)ccc4c2C3=O)CC1` [Compound T13-10, 4-[2-(3-Bromo-6,6-dimethyl-11-oxo-6,11-dihydro-5H-benzo[b]carbazole-8-yl-oxy)-acetyl]-piperazine-1-sulfonic acid methylamide], the figure is 1380 nM; as for `CC1(C)c2cc(CN3CCOCC3)ccc2C(=O)c2c1[nH]c1cc(C#N)ccc21` [Compound B3-32, 6,6-Dimethyl-8-morpholin-4-yl methyl-11-oxo-6,11-dihydro-5H-benzo[b]carbazole-3-carbonitrile], 65.2 nM; as for `CC#Cc1cc2c(cc1N1CCC(N3CCOCC3)CC1)C1(CCOCC1)c1[nH]c3cc(C#N)ccc3c1C2=O` [Compound O9-7, 8-(4-Morpholinopiperidin-1-yl)-11-oxo-9-(prop-1-ynyl)-2′,3′,5,5′,6′,11-hexahydrospiro[benzo[b]carbazole-6,4′-pyran]-3-carbonitrile], 4.4 nM.
As for `CC1(C)c2cc(N3CCC(N4CCCC4)CC3)c(C3=CCN(S(C)(=O)=O)CC3)cc2C(=O)c2c1[nH]c1cc(C#N)ccc21` [Compound F6-2, 9-(1-Methanesulfonyl-1,2,3,6-tetrahydro-pyridin-4-yl)-6,6-dimethyl-11-oxo-8-(4-pyrrolidin-1-yl-piperidin-1-yl)-6,11-dihydro-5H-benzo[b]carbazole-3-carbonitrile], the figure is 29.5 nM.
As for `CCN1[C@H](C)CN(c2ccc3c(c2)C(C)(C)c2[nH]c4cc(C#N)ccc4c2C3=O)C[C@@H]1C` [Compound B3-40, 8-((3R,5S)-4-Ethyl-3,5-dimethyl-piperazin-1-yl)-6,6-dimethyl-11-oxo-6,11-dihydro-5H-benzo[b]carbazole-3-carbonitrile], the IC50 was found to be 22 nM.
As for `CCc1cc2c(cc1N1CC(N3CCCCC3)C1)C(C)(C)c1[nH]c3cc(C#N)ccc3c1C2=O` [PR9-11, 9-Ethyl-6,6-dimethyl-11-oxo-8-(3-piperidin-1-yl-azetidin-1-yl)-6,11-dihydro-5H-benzo[b]carbazole-3-carbonitrile], the figure is 36 nM; as for `CC#Cc1cc2c(cc1N1CCN(C3CCC3)CC1)C(C)(C)c1[nH]c3cc(C#N)ccc3c1C2=O` [Compound F5-44, 8-(4-Cyclobutyl-piperazin-1-yl)-6,6-dimethyl-11-oxo-9-prop-1-ynyl-6,11-dihydro-5H-benzo[b]carbazole-3-carbonitrile], 6 nM.
Consider `CC1(C)c2cc(N3CCOCC3)c(C#CCN3CCN(C4CC4)CC3)cc2C(=O)c2c1[nH]c1cc(C#N)ccc21` [Compound F5-10, 9-[3-(4-Cyclopropyl-piperazin-1-yl)-prop-1-ynyl]-6,6-dimethyl-8-morpholin-4-yl-11-oxo-6,11-dihydro-5H-benzo[b]carbazole-3-carbonitrile], for which the IC50 stood at 13.5 nM.
In the case of `CC1(C)c2cc(OCCC3CCN(C4COC4)CC3)ccc2C(=O)c2c1[nH]c1cc(C#N)ccc21` [Compound A8-21, 6,6-Dimethyl-8-[2-(1-oxetan-3-yl-piperidin-4-yl)-ethoxy]-11-oxo-6,11-dihydro-5H-benzo[b]carbazole-3-carbonitrile] it was 105 nM; in that of `CC1(C)c2cc(OCC3CCNCC3)ccc2C(=O)c2c1[nH]c1cc(Br)ccc21` [Compound T14-2, 3-Bromo-6,6-dimethyl-8-(piperidin-4-ylmethoxy)-5,6-dihydro-benzo[b]carbazol-11-one hydrochloric acid salt], 632 nM; in that of `CC(C)Oc1cc2c(cc1Oc1ccncc1)C(C)(C)c1[nH]c3cc(C#N)ccc3c1C2=O` [Compound L10-10, 9-Isopropoxy-6,6-dimethyl-11-oxo-8-(pyridin-4-yloxy)-6,11-dihydro-5H-benzo[b]carbazole-3-carbonitrile], 159 nM.
`CCc1cc2c(cc1N1CCC(OCC3CC3)CC1)C(C)(C)c1[nH]c3cc(C#N)ccc3c1C2=O` [PR9-24, 8-(4-Cyclopropylmethoxy-piperidine-1-yl)-9-ethyl-6,6-dimethyl-11-oxo-6,11-dihydro-5H-benzo[b]carbazole-3-carbonitrile]: the IC50 worked out at 67.9 nM.
In the case of `CC1(C)c2cc(N3CCN(C4CC4)CC3)c(Br)cc2C(=O)c2c1[nH]c1cc(C#N)ccc21` [Compound F4-9, 9-Bromo-8-(4-cyclopropyl-piperazin-1-yl)-6,6-dimethyl-11-oxo-6,11-dihydro-5H-benzo[b]carbazole-3-carbonitrile] it was 65 nM.
With `CC1(C)c2cc(OC[C@@H](O)[C@H](O)CO)ccc2C(=O)c2c1oc1cc(OC(=O)NC3CCCCC3)ccc21` [GT13-25, Cyclohexyl-carbamic acid 6,6-dimethyl-11-oxo-8-((2R,3R)-2,3,4-trihydroxy-butoxy)-6,11-dihydro-benzo[b]naphtho[2,3-d]furan-3-yl ester], the IC50 is 5510 nM.
